± gives the standard deviation of the averaged measurements. The full ranking holds about 1,900 compounds; the median of “CD40L-induced NF-kB luciferase activity, plate-corrected, relative to DMSO (0) and IKK inhibitor VII (-100) controls” is about 0.032, and the lowest 2% start at about -26. The list shows a part of the results.
The molecules below were run on BL2-NFkB-Luc (assay: CD40L-induced NF-kB luciferase activity, plate-corrected, relative to DMSO (0) and IKK inhibitor VII (-100) controls (% normalized activity); higher = more NF-kB reporter activity (less inhibition)). Details: 9.4 µM; stimulus: tCD40L 64 ng/ml; 4.5 h.
Experimental: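 BL2 B cells with a stable NF-kB response-element luciferase reporter (BL2-NFkB-Luc), 384-well. Cells were pre-incubated with compound at 9.4 uM for 1 h at 37 C, then stimulated with 64 ng/ml trimerized CD40L for 4.5 h; luciferase was read with Steady-Glo. Signal was normalised per plate in Genedata (median DMSO neutral control = 0, median IKK inhibitor VII at 50 uM = -100) with Assay Median plate-pattern correction; duplicate plates.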

Going from O=C(O)c1cccnc1 to NNC(=O)c1ccncc1, the “CD40L-induced NF-kB luciferase activity” value rises from -2.25 ± 4.9 to 3.57 ± 0.34.

CCCCc1oc2ccccc2c1C(=O)c1cc(I)c(OCCN(CC)CC)c(I)c1 and CCN(CCCCOC(=O)c1ccc(OC)c(OC)c1)C(C)Cc1ccc(OC)cc1 (centres undefined) are within error of each other in “CD40L-induced NF-kB luciferase activity” value: -5.84 ± 11 for the first, -3.39 ± 0.46 for the second.

Cc1ccccc1N1C(N)=NC(N)=NC1(C)C and Cc1[nH]c2ccccc2c1C(=O)CN1CCCC1 are within error of each other in “CD40L-induced NF-kB luciferase activity” value: -0.82 ± 0.14 for the first, -3.4 ± 5.8 for the second.

CN1C(=O)NC(c2ccc(O)cc2)C2=C1CN(c1cccc3ccccc13)C2=O (centres undefined) and CCOC(=O)C1=C(N)Oc2c(c(=O)[nH]c3ccccc23)C1c1ccccc1 (centres undefined) are within error of each other in “CD40L-induced NF-kB luciferase activity” value: -0.466 ± 3.7 for the first, 0.396 ± 1.2 for the second.

First: COCCCN1C(=O)/C(=C\c2cccs2)C(C(=O)OC)=C1C
Second: COc1cc(NC(=S)NC(=O)c2cccs2)ccc1NC(=O)C(C)C
The “CD40L-induced NF-kB luciferase activity” value of the first is lower: 3.31 ± 6.8 for the first, 21.8 ± 2.5 for the second.

Compared with CC1(C)O[C@@H]2C[C@H]3[C@@H]4C[C@H](F)C5=CC(=O)CC[C@]5(C)[C@H]4[C@@H](O)C[C@]3(C)[C@]2(C(=O)CO)O1, CC1(C)O[C@@H]2C[C@H]3[C@@H]4C[C@H](F)C5=CC(=O)C=C[C@]5(C)[C@@]4(F)[C@@H](O)C[C@]3(C)[C@]2(C(=O)CO)O1 is lower in “CD40L-induced NF-kB luciferase activity” value: -21.3 ± 0.59 for the first, -23.7 ± 1.8 for the second.

CC(=O)Nc1ccc(CN2CCN(C3CCCCC3)C(CCO)C2)cc1 (centres undefined) and OC(CCN1CCCC1)(c1ccccc1)C1CCCCC1 (centres undefined) are within error of each other in “CD40L-induced NF-kB luciferase activity” value: -3.33 ± 2.4 for the first, 0.49 ± 3 for the second.

CC12CCC(C(=O)NCc3ccc4c(c3)OCO4)(CC1=O)C2(C)C (centres undefined) and CC12CCC(C(=O)N3CCCCC3)([C@H](Br)C1=O)C2(C)C (some centres undefined) are within error of each other in “CD40L-induced NF-kB luciferase activity” value: 0.33 ± 1.6 for the first, -0.16 ± 1.6 for the second.

COc1cccc(OCc2nnc(-c3cccs3)o2)c1 and COc1cc(-c2nnc(-c3cccs3)o2)cc(OC)c1OC are within error of each other in “CD40L-induced NF-kB luciferase activity” value: 18.5 ± 4.1 for the first, 7.78 ± 8.6 for the second.

Compared with COc1ccc(C2C3C(C)=NN=C3CC(C)(O)C2C(C)=O)cc1 (centres undefined), CC(=O)C1=C(O)C(=O)OC1c1ccc(C)cc1 (centres undefined) is lower in “CD40L-induced NF-kB luciferase activity” value: 2.23 ± 0.31 for the first, 0.359 ± 1.5 for the second.

Going from COc1ccccc1OS(=O)(=O)c1ccc(NC(C)=O)cc1 to COC(=O)c1ccc(NC(=O)c2ccccc2SC)cc1, the “CD40L-induced NF-kB luciferase activity” value rises from -5.27 ± 7.2 to 18 ± 0.93.

Compared with COc1ccc(OC)c(C(=O)c2coc3ccc(O)cc23)c1, COC(=O)c1cc(COc2ccc3ccc(=O)oc3c2)c(C)o1 is lower in “CD40L-induced NF-kB luciferase activity” value: 11.7 ± 0.53 for the first, -1.24 ± 3.4 for the second.

Going from C[C@]12CC[C@@H]3c4ccc(O)cc4C(=O)C[C@H]3[C@@H]1CC[C@@H]2O to CC(=O)OCC(=O)[C@@]1(O)CC[C@H]2[C@@H]3CCC4=CC(=O)C=C[C@]4(C)[C@H]3[C@@H](O)C[C@@]21C, the “CD40L-induced NF-kB luciferase activity” value falls from 7.84 ± 6.3 to -43.8 ± 2.2.

Cc1c(CCOC(=O)CC23CC4CC(CC(C)(C4)C2)C3)sc[n+]1Cc1ccc([N+](=O)[O-])cc1 and NC12CC3CC(C1)CC(O)(C3)C2 are within error of each other in “CD40L-induced NF-kB luciferase activity” value: -9.19 ± 4.1 for the first, -3.49 ± 3 for the second.

COc1ccc(/C=C(/C#N)c2cccnc2)cc1OC and COc1cc(CO)ccc1OCc1nnnn1-c1ccc(C)cc1 are within error of each other in “CD40L-induced NF-kB luciferase activity” value: 3.06 ± 3.7 for the first, 2.51 ± 0.59 for the second.

C[C@H](CS)C(=O)N1CCC[C@H]1C(=O)O and CC(C)C1Cc2[nH]c(=O)c(C(=O)O)cc2CO1 (centres undefined) are within error of each other in “CD40L-induced NF-kB luciferase activity” value: -2.48 ± 0.67 for the first, -5.76 ± 3.3 for the second.

Compared with COc1cccc(N2CC34C=CC(O3)C(C(=O)O)C4C2=O)c1 (centres undefined), O=C(c1ccc(Cl)cc1)C1CCCN(C(=O)/C=C/c2ccccn2)C1 (centres undefined) is lower in “CD40L-induced NF-kB luciferase activity” value: 8.23 ± 1.8 for the first, -0.905 ± 1.6 for the second.

CC1=CC2(O)OCCN(CCO)C2=CC1=O (centres undefined) and CC(=O)c1cn(C)c(=O)[nH]c1=O are within error of each other in “CD40L-induced NF-kB luciferase activity” value: -2.33 ± 5.6 for the first, 0.241 ± 1.2 for the second.

First: NCCc1ccc(O)c(O)c1
Second: COCCNC(=O)CSc1ccc(Cl)cc1
The “CD40L-induced NF-kB luciferase activity” value of the first is lower: -1.92 ± 0.31 for the first, 0.647 ± 1.4 for the second.

Going from Cc1nonc1CN(C)C(=O)c1ccc(OC2CCN(C(=O)c3cccnc3)CC2)cc1 to CCCCOc1ccc(C(=O)CCN2CCCCC2)cc1, the “CD40L-induced NF-kB luciferase activity” value falls from 41.9 ± 0.33 to -3.59 ± 1.6.

Compared with CC(C)(C)c1ccc(/C=C/C(=O)N2CCCCC2)cc1, C[C@H](NC(=O)C1(c2ccccc2)CCN(C(=O)[C@H]2CSCN2C(=O)OC(C)(C)C)CC1)C(=O)O is lower in “CD40L-induced NF-kB luciferase activity” value: 71.9 ± 8.8 for the first, 5.46 ± 5.9 for the second.

First: CCCCCCCCN[C@H](C)[C@@H](O)c1ccc(SC(C)C)cc1
Second: Cc1cc(C)nc(NS(=O)(=O)c2ccc(N)cc2)n1
The “CD40L-induced NF-kB luciferase activity” value of the first is higher: 4.01 ± 2.6 for the first, -1.97 ± 1 for the second.

Going from CC[C@]1(O)C[C@@H]2CN(CCc3c([nH]c4ccccc34)[C@@](C(=O)OC)(c3cc4c(cc3OC)N(C=O)[C@H]3[C@@](O)(C(=O)OC)[C@H](OC(C)=O)[C@]5(CC)C=CCN6CC[C@]43[C@@H]65)C2)C1 to COc1cc2nc(N3CCN(C(=O)C4COc5ccccc5O4)CC3)nc(N)c2cc1OC (centres undefined), the “CD40L-induced NF-kB luciferase activity” value rises from -50.4 ± 4.8 to 0.0855 ± 3.3.

First: NS(=O)(=O)c1cc2c(cc1Cl)NC(C1C[C@H]3C=C[C@@H]1C3)NS2(=O)=O (some centres undefined)
Second: C[C@@H]1C[C@H]2[C@@H]3CCC4=CC(=O)C=C[C@]4(C)[C@@]3(F)[C@@H](O)C[C@]2(C)[C@H]1C(=O)CO
The “CD40L-induced NF-kB luciferase activity” value of the first is higher: 4.77 ± 0.85 for the first, -31.39 ± 0.23 for the second.

Cc1cc(C(C)(C)C)cc(C)c1CC1=NCCN1 and COc1cc2c(cc1OC)CN(Cc1ccc(C)s1)CC2 are within error of each other in “CD40L-induced NF-kB luciferase activity” value: -2.48 ± 2.8 for the first, -4.91 ± 5.6 for the second.

Going from NC[C@H]1O[C@H](O[C@H]2[C@H](O)[C@@H](O[C@H]3O[C@H](CO)[C@@H](O)[C@H](N)[C@H]3O)[C@H](N)C[C@@H]2N)[C@H](N)C[C@@H]1O to CC1(C)Cc2nc3sc4c(=O)n(CC(N)=O)cnc4c3cc2CO1, the “CD40L-induced NF-kB luciferase activity” value falls from 2.99 ± 2.8 to -5.2 ± 5.3.

Going from Cc1ccc(C(=O)COC(=O)c2cnccn2)cc1[N+](=O)[O-] to COc1cc(OC)cc(C(=O)N[C@@H](CCSC)c2nc3ccccc3[nH]2)c1, the “CD40L-induced NF-kB luciferase activity” value falls from 0.896 ± 2.4 to -3.07 ± 0.071.

Reference: the supplement of paper PMC3656093
